The test system of the assay is RPE1. Briefly: nucleolar normality score relative to DMSO (fraction of DMSO control); RPE1 is a non-cancer human cell line; higher = more normal nucleoli (less nucleolar stress). The following applies: 24 h.

The text below walks through data of the supplement of paper PMC10723795.

The other results are listed elsewhere or left out.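 Rule for the calls: active = more than 2 SD below the DMSO mean: under 0.85 at 10 µM or 0.885 at 1 µM; inactive = the rest.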 Single values are uncertain, as repeats are few or missing.
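Note: fixed cells immunolabelled for nucleolin and UBF, 40 image fields per well in 384-well plates, per-cell score = nucleolin nucleolar/nucleoplasm intensity ratio divided by the matching UBF ratio.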

Consider `Cc1cc(C)cc(C(=O)NOCCCCCC(=O)NO)c1`, for which the nucleolar normality score reads like this: (1 µM) inactive: 1; (10 µM) inactive: 0.96.
Take `CC1(C)O[C@@H]2C[C@H]3[C@@H]4CCC5=CC(=O)C=C[C@]5(C)[C@@]4(F)[C@@H](O)C[C@]3(C)[C@]2(C(=O)CO)O1` [Triamcinolone Acetonide]: the nucleolar normality score reads like this: (1 µM) inactive: 1.02; (10 µM) inactive: 1.06.
On to `O=C(O)CCCc1ccccc1` [Sodium Phenylbutyrate], for which the nucleolar normality score was inactive: 1.07 (1 µM) and inactive: 1.08 (10 µM).
In the case of `CC(C)Oc1ccc(C(=O)N[C@H](CNC(=O)CN(C)C)Cc2ccc(-c3cn4cccc([C@H](C)O)c4n3)cc2)cc1Cl`, the nucleolar normality score is, setting by setting: (1 µM) active: 0.781; (10 µM) active: 0.64.
The like results for `CC1(C)OCCn2c1nc1c(N3CCOCC3)nc(-c3cnc(N)nc3)nc12` were, in that order, active: 0.884 and active: 0.713.
Regarding `C[C@@H]1C[C@H]2[C@@H]3CCC4=CC(=O)C=C[C@]4(C)[C@@]3(F)[C@@H](O)C[C@]2(C)[C@@]1(O)C(=O)CO` [Dexamethasone (DHAP)], the nucleolar normality score runs as follows: (1 µM) inactive: 0.978; (10 µM) inactive: 1.
With `CN(C(=O)CNC(=O)/C=C/c1cccc(Cl)c1)C1CCS(=O)(=O)CC1`, the nucleolar normality score is inactive: 0.937 (1 µM) and inactive: 0.984 (10 µM).
In the same order, the values of `FC(F)c1nc2ccccc2n1-c1nc(N2CCOCC2)nc(N2CCOCC2)n1` are inactive: 1.01 and inactive: 0.981.
The like results for `COc1ccccc1S(=O)(=O)Nc1ccc2c(c1)CN(C)C(=O)N2` were, in that order, inactive: 1.03 and inactive: 1.09.
In the same order, the values of `CNC(=O)c1cnn(-c2nc(N)c3ncn([C@@H]4O[C@H](CO)[C@@H](O)[C@H]4O)c3n2)c1` [Regadenoson] are inactive: 1 and inactive: 0.947.
As for `C=CC(=O)Nc1ccc2ncnc(Nc3cccc(Br)c3)c2c1`, the nucleolar normality score was inactive: 1.04 (1 µM) and inactive: 0.878 (10 µM).
In the same order, the values of `CN1CCN(CCOc2cc(OC3CCOCC3)c3c(Nc4c(Cl)ccc5c4OCO5)ncnc3c2)CC1` [Saracatinib (AZD0530)] are inactive: 0.929 and inactive: 0.979.
Regarding `COc1nnc2ccc(N3CCC(c4ccc(OCCN5CCN(C)C(=O)[C@H]5C)cc4)CC3)nn12`, the nucleolar normality score by setting is: (1 µM) inactive: 0.956; (10 µM) inactive: 0.909.
Consider `CCN=C1N[C@@H]2[C@@H](O)[C@H](O)[C@@H](CO)O[C@@H]2S1` [Thiamet G], for which the nucleolar normality score is, setting by setting: (1 µM) inactive: 0.938; (10 µM) inactive: 1.03.
As for `O=C(NOC[C@H](O)CO)c1ccc(F)c(F)c1Nc1ccc(I)cc1F`, the nucleolar normality score was inactive: 0.976 (1 µM) and inactive: 0.971 (10 µM).
In the same order, the values of `COc1ccc(S(=O)(=O)N(C(C)=O)c2ccccc2/C=C/c2cc[n+]([O-])cc2)cc1` are active: 0.827 and inactive: 0.908.
The like results for `Cc1nc(-c2cn3c(n2)-c2ccc(-c4cnn(C(C)(C)C(N)=O)c4)cc2OCC3)n(C(C)C)n1` [Taselisib (GDC 0032)] were, in that order, active: 0.731 and active: 0.642.
The like results for `O=C(/C=C/c1ccc(CN(CCO)CCc2c[nH]c3ccccc23)cc1)NO` [Dacinostat (LAQ824)] were, in that order, active: 0.512 and active: 0.481.
